# Measurements from the supplement of paper PMC10037445.
# Whole data set: some 2,900 compounds, median “NF-kB SEAP reporter activity, fold change vs agonist alone” near 0.99, cut for the highest 2% near 2.6. This is one part of the list.
# How the values were obtained:
# [1] = test system: RAW-Dual; test: NF-kB SEAP reporter activity, fold change vs agonist alone; cytotoxicity flag (confluency mask): cytotoxic (confluency <70% of control); higher = enhanced NF-kB activity; settings: agonist: Pam3CSK4 (TLR2/1) 0.1 ug/mL
# Method in brief: (§1)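 Library stock was pin-tooled at 50 nL into 384-well plates of RAW-Dual macrophages (50,000 cells/well, DMEM), followed 1 h later by a PRR agonist, and the cells were kept at 37 °C, 5% CO2. Supernatant collected after 20 hours was read for IRF by QuantiLuc luminescence and for NF-κB by QuantiBlue absorbance at 620 nm. Reporter activity is fold change over agonist-alone wells, and a well counted as cytotoxic when its IncuCyte confluency was below 70% of agonist controls in both mask sets.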
# [2] = test system: RAW-Dual; test: NF-kB SEAP reporter activity, fold change vs agonist alone; cytotoxicity flag (confluency mask): not cytotoxic; higher = enhanced NF-kB activity
# Method in brief: as §1
# [3] = test system: RAW-Dual; test: NF-kB SEAP reporter activity, fold change vs agonist alone; higher = enhanced NF-kB activity; settings: cytotoxicity flag (confluency mask): not cytotoxic
# Method in brief: as §1
# [4] = agonist: ODN 1826 (TLR9) 0.5 ug/mL
# [5] = agonist: Pam2CSK4 (TLR2/6) 0.1 ug/mL
# [6] = agonist: Pam3CSK4 (TLR2/1) 0.1 ug/mL
# [7] = library stock concentration (final ~1000-fold dilution): 10 mM, agonist: Imiquimod (TLR7) […]
# [8] = library stock concentration (final ~1000-fold dilution): 10 mM, agonist: MPLA (TLR4) […]
smiles,measurement,setting,value
CCC1C(=O)N(C)c2cnc(Nc3ccc(C(=O)NC4CCN(C)CC4)cc3OC)nc2N1C1CCCC1 (stereo unspecified) (library stock concentration (final ~1000-fold dilution): 10 mM),NF-kB SEAP reporter activity,[1],3.64
O=C(/C=C/c1ccc(O)cc1)c1ccc(O)cc1O (library stock concentration (final ~1000-fold dilution): 10 mM),NF-kB SEAP reporter activity,[2]; agonist: LPS (TLR4) 0.1 ug/mL,1.5
same,NF-kB SEAP reporter activity,[2]; [4],0.82
same,NF-kB SEAP reporter activity,[2]; [5],1.46
same,NF-kB SEAP reporter activity,[2]; [6],1.39
O=C(/C=C/c1ccc(O)cc1)c1ccc(O)cc1O,NF-kB SEAP reporter activity,[3]; [7],1.62
same,NF-kB SEAP reporter activity,[3]; [8],1.38
CN1CCc2c(c3ccccc3n2Cc2ccc(C(=O)NO)cc2)C1 (library stock concentration (final ~1000-fold dilution): 10 mM),NF-kB SEAP reporter activity,[2]; agonist: LPS (TLR4) 0.1 ug/mL,1.15
same,NF-kB SEAP reporter activity,[2]; [4],1.21
same,NF-kB SEAP reporter activity,[2]; [5],0.779
same,NF-kB SEAP reporter activity,[2]; [6],1.15
CN1CCc2c(c3ccccc3n2Cc2ccc(C(=O)NO)cc2)C1,NF-kB SEAP reporter activity,[3]; [7],1
same,NF-kB SEAP reporter activity,[3]; [8],1.11
CN(C)C(=O)c1ccc(S(=O)(=O)c2ccc(NC(=O)C(C)(O)C(F)(F)F)c(Cl)c2)cc1 (stereo unspecified),NF-kB SEAP reporter activity,[3]; [7],0.832
same,NF-kB SEAP reporter activity,[3]; [8],1.13
CN(C)C(=O)c1ccc(S(=O)(=O)c2ccc(NC(=O)C(C)(O)C(F)(F)F)c(Cl)c2)cc1 (stereo unspecified) (library stock concentration (final ~1000-fold dilution): 10 mM),NF-kB SEAP reporter activity,[2]; agonist: LPS (TLR4) 0.1 ug/mL,1.58
same,NF-kB SEAP reporter activity,[2]; [4],1.11
same,NF-kB SEAP reporter activity,[2]; [5],0.943
same,NF-kB SEAP reporter activity,[2]; [6],1.17
O=c1c(-n2ccnn2)c[nH]n1-c1cc(N2CCOCC2)ncn1 (library stock concentration (final ~1000-fold dilution): 2 mM),NF-kB SEAP reporter activity,[2]; agonist: LPS (TLR4) 0.1 ug/mL,1.12
same,NF-kB SEAP reporter activity,[2]; [4],0.909
same,NF-kB SEAP reporter activity,[2]; [5],0.869
same,NF-kB SEAP reporter activity,[2]; [6],0.836
O=c1c(-n2ccnn2)c[nH]n1-c1cc(N2CCOCC2)ncn1,NF-kB SEAP reporter activity,"[3]; library stock concentration (final ~1000-fold dilution): 2 mM, agonist: Imiquimod (TLR7) […]",0.764
same,NF-kB SEAP reporter activity,"[3]; library stock concentration (final ~1000-fold dilution): 2 mM, agonist: MPLA (TLR4) […]",0.938
COc1cc(/C=C/CO)cc(OC)c1OC1OC(CO)C(O)C(O)C1O (stereo unspecified),NF-kB SEAP reporter activity,[3]; [7],1.03
same,NF-kB SEAP reporter activity,[3]; [8],1.08
COc1cc(/C=C/CO)cc(OC)c1OC1OC(CO)C(O)C(O)C1O (stereo unspecified) (library stock concentration (final ~1000-fold dilution): 10 mM),NF-kB SEAP reporter activity,[2]; agonist: LPS (TLR4) 0.1 ug/mL,1.08
same,NF-kB SEAP reporter activity,[2]; [4],1.01
same,NF-kB SEAP reporter activity,[2]; [5],1.11
same,NF-kB SEAP reporter activity,[2]; [6],1.15
Cc1cnc(-c2cc(N3CCN(C(=O)CCS(C)(=O)=O)CC3)ncc2Cl)c(C)c1 (library stock concentration (final ~1000-fold dilution): 10 mM),NF-kB SEAP reporter activity,[2]; agonist: LPS (TLR4) 0.1 ug/mL,1.41
same,NF-kB SEAP reporter activity,[2]; [4],0.906
same,NF-kB SEAP reporter activity,[2]; [5],1.12
same,NF-kB SEAP reporter activity,[2]; [6],1.17
Cc1cnc(-c2cc(N3CCN(C(=O)CCS(C)(=O)=O)CC3)ncc2Cl)c(C)c1,NF-kB SEAP reporter activity,[3]; [7],1.06
same,NF-kB SEAP reporter activity,[3]; [8],1.04
OCC1NCC(O)C(O)C1O (stereo unspecified) (library stock concentration (final ~1000-fold dilution): 10 mM),NF-kB SEAP reporter activity,[2]; agonist: LPS (TLR4) 0.1 ug/mL,0.778
same,NF-kB SEAP reporter activity,[2]; [4],0.78
same,NF-kB SEAP reporter activity,[2]; [5],0.788
same,NF-kB SEAP reporter activity,[2]; [6],0.692
OCC1NCC(O)C(O)C1O (stereo unspecified),NF-kB SEAP reporter activity,[3]; [7],0.542
same,NF-kB SEAP reporter activity,[3]; [8],0.814
CCC(C)(Oc1ccc(C2(c3ccc(OC(C)(CC)C(=O)O)cc3)CCCCC2)cc1)C(=O)O (stereo unspecified) (library stock concentration (final ~1000-fold dilution): 10 mM),NF-kB SEAP reporter activity,[2]; agonist: LPS (TLR4) 0.1 ug/mL,1.17
same,NF-kB SEAP reporter activity,[2]; [4],0.977
same,NF-kB SEAP reporter activity,[2]; [5],1.1
same,NF-kB SEAP reporter activity,[2]; [6],1.03
CCC(C)(Oc1ccc(C2(c3ccc(OC(C)(CC)C(=O)O)cc3)CCCCC2)cc1)C(=O)O (stereo unspecified),NF-kB SEAP reporter activity,[3]; [7],0.648
same,NF-kB SEAP reporter activity,[3]; [8],0.731
CNc1cc(-c2cccc(Cl)c2Cl)nc(N)n1,NF-kB SEAP reporter activity,[3]; [7],0.948
same,NF-kB SEAP reporter activity,[3]; [8],1.13
